The record followed here is ChEMBL document CHEMBL4888484, “Replenishing the malaria drug discovery pipeline: Screening and hit evaluation of the MMV Hit Generation Library 1 (HGL1) against asexual blood stage Plasmodium falciparum ,using a nano luciferase reporter read-out” (2022).

In general, % Inhibition refers to the change of the read-out against control, counted positive when it falls.

Structures are written as SMILES. The campaign covered roughly 150,000 compounds. About 540 (0.36%) showed an effect of 50% or more. The list shows a part of the results.

In the experiment the test system is Plasmodium falciparum. The experiment is described as follows: Primary screen in NF54 nanoGlo assay, in single point, at 2uM, 72h; a lower Z score goes with more inhibition. The class given is functional, Erythrocyte. Particulars: timepoint 72 hour.
Take `O=C(NC1CCCCC1)c1cnsn1`: the “% Inhibition” value was -6% and the Z score was determined as 0.85.
Regarding `CO[C@@](C)(CNC(=O)N1CCNC1=O)c1ccccc1F`, the “% Inhibition” value stood at 10% and the Z score is on record as -1.21.
For `Cc1c(CN2C[C@H](O)[C@@H](N3CCN(C)CC3)C2)[nH]c2ccc(Cl)cc12`, the “% Inhibition” value is on record as -1% and the Z score is 0.14.
With `COc1ccsc1S(=O)(=O)N[C@@H](C(C)C)[C@H](O)C(F)(F)F`, the “% Inhibition” value worked out at 0% and the Z score is 0.03.
`Cc1cc(C(=O)NC2CCCC(C)C2C)no1` (stereo not given): the “% Inhibition” value is -18% and the Z score is reported as 2.03.
Turning to `CC(C)N1C(=O)CN(C(=O)[C@H]2CCO[C@@H]2c2cnn(C)c2)CC1(C)C`, the “% Inhibition” value is listed as -5% and the Z score was 0.91.
Consider `CC(C)n1cccc1C(=O)OC1CCCC(S(C)(=O)=O)C1` (stereo not given), for which the “% Inhibition” value is -18% and the Z score worked out at 2.44.
Take `C[C@H](NS(=O)(=O)Cc1cccc(F)c1)C(N)=O`: the “% Inhibition” value is -5% and the Z score was determined as 0.72.
On the same counts, the results for `CCN(C)C(=O)c1coc(CN2C(=O)COc3ccc(C(=O)COc4cc(C)cc(C)c4)cc32)n1` are -18% and 2.76.
For `CN(C(=O)c1n[nH]c(=O)c2ccccc12)C1CCCC1`, the “% Inhibition” value is reported as -5% and the Z score is 0.74.
In the case of `Cn1cccc1C(=O)N1C[C@@H]2C[C@H]1C[C@@H]2NC(=O)c1ccccc1`, the “% Inhibition” value is recorded as -11% and the Z score was determined as 1.66.
With `O=C1CO[C@H]2CN(Cc3c[nH]c4ccccc34)C[C@H]2N1Cc1ccccn1`, the “% Inhibition” value was 19% and the Z score is recorded as -3.02.
On to `O=C(O)[C@@H]1Cc2ccccc2C(=O)N1CCc1ccccc1`, for which the “% Inhibition” value is listed as 10% and the Z score is -1.54.
On the same counts, the results for `O[C@H]1CN(CCCCOc2ccccc2)C[C@@H]1F` are 2% and -0.4.
The matching figures for `CS(=O)(=O)N1CC(CONC(=O)CCCc2ccccc2)C1`: -11% and 1.38.
As for `O=C(Cc1ccc(F)c(F)c1)N1CCC(C2(c3ccccn3)NC(=O)N(CC3CCCO3)C2=O)CC1` (stereo not given), the “% Inhibition” value is 16% and the Z score is listed as -2.03.
`CCC[C@]1(COC)CCCN1Cc1csc(-c2c(C)c(C)nn(C)c2=O)n1`: the “% Inhibition” value is -15% and the Z score was 2.3.
On to `COCc1noc(CCNC(=O)[C@H](O)c2ccccc2Cl)n1`, for which the “% Inhibition” value is -11% and the Z score is reported as 1.39.
Turning to `CCC(C)N1C(=O)C(Cc2ccccc2)NC12CCN(S(=O)(=O)c1ccc(Cl)c(Cl)c1)CC2` (stereo not given), the “% Inhibition” value is listed as -19% and the Z score is listed as 1.66.
The matching figures for `CCNc1cc(C)ccc1NC(=O)C1CN(C)CC1C(F)(F)F` (stereo not given): -9% and 1.03.
For the compound `CCN1CCO[C@H](C(=O)N2CCCc3cc(OC)ccc3C2)C1`, the “% Inhibition” value is reported as -15% and the Z score is given as 1.92.
Turning to `CCOC(=O)C(=O)Nc1ccc(C(C)(C)C)cc1`, the “% Inhibition” value is on record as -13% and the Z score worked out at 2.28.
The matching figures for `Cc1nn(C)c(C)c1CC(=O)N1CCCc2ccccc21`: -11% and 1.56.
In the case of `Fc1cc(-c2ccc(-c3ccon3)s2)c2ncccc2c1`, the “% Inhibition” value is reported as -12% and the Z score is listed as 1.51.
The matching figures for `CCN(CC)S(=O)(=O)c1ccc2c(c1)nnn2CCNC(=O)Nc1cccc(F)c1`: 26% and -2.96.
Take `O=C(CN1C(c2ccc(Cl)cc2)=C[C@@H](c2ccccc2)n2nnnc21)Nc1ccccc1`: the “% Inhibition” value was -11% and the Z score was found to be 1.91.
With `CCC(=O)c1cccc(C[C@H]2CC(=O)N(CCOC)C2)c1`, the “% Inhibition” value was 3% and the Z score was -0.53.
`CN(C(=O)c1ccc2c(c1)N(S(C)(=O)=O)CC2)c1cccc(C(F)(F)F)c1`: the “% Inhibition” value was -13% and the Z score came to 2.14.
For `COc1ccc(Cc2nc(-c3ccc(N4CCCC4)cc3)no2)cc1`, the “% Inhibition” value was -6% and the Z score came out at 0.84.
`CS(=O)(=O)[C@H]1CCCCN(c2nnc(C(F)F)o2)C1`: the “% Inhibition” value stood at 19% and the Z score is -2.37.
Turning to `CCCCn1nc(-c2ccncc2)nc1CN(C)C`, the “% Inhibition” value is on record as -2% and the Z score is given as 0.3.
On to `Cc1ccc(CNC(=O)N2C[C@H](O)[C@@H](F)C2)cc1`, for which the “% Inhibition” value is -6% and the Z score came to 0.76.
`CCC1[C@@H](C)C(Nc2ccccc2)c2ccccc2N1C(=O)c1ccc(Br)cc1` (stereo not given in full): the “% Inhibition” value was -14% and the Z score amounted to 1.6.
`O=C(Cn1nnc2ccccc2c1=O)N1CCc2nc[nH]c2C1`: the “% Inhibition” value is -4% and the Z score was 0.62.
The matching figures for `NS(=O)(=O)[C@H]1CCc2ccccc2C1`: -3% and 0.36.
As for `N#CCCN(CC1CCC1)S(=O)(=O)CCc1ccccn1`, the “% Inhibition” value is recorded as -7% and the Z score is 0.85.
Turning to `CCCNC(=O)[C@@H]1CCCC[C@@H]1c1nc(C)nn1-c1ccc(F)cc1F`, the “% Inhibition” value is recorded as -8% and the Z score came to 1.48.
`O=C([C@@H](c1ccccc1)n1nnc(-c2ccccc2Br)n1)N1CCCC1`: the “% Inhibition” value is on record as 34% and the Z score is on record as -3.97.
The matching figures for `Cc1nc(-c2cc(S(=O)(=O)Nc3cccc(F)c3)cn2C)sc1C(=O)N1CCCCC1`: -20% and 2.37.
On to `CCc1nc(-c2cc(CC(C)C)[nH]c(=O)n2)n(Cc2ccccc2Cl)n1`, for which the “% Inhibition” value is on record as -17% and the Z score amounted to 1.53.
With `O=C(Nc1nc2c(s1)CCC2)c1ccco1`, the “% Inhibition” value is given as -6% and the Z score stood at 0.52.
As for `CNC(=O)c1cccc(CN2CCC(CN3CCc4ccccc43)CC2)c1`, the “% Inhibition” value was -7% and the Z score is recorded as 1.
On the same counts, the results for `O=C(NC1(c2cccc(Cl)c2)CCCC1)c1cnccn1` are -1% and 0.14.
Turning to `CC(C)(CNc1ncccc1S(C)(=O)=O)c1ccncc1`, the “% Inhibition” value is given as -3% and the Z score worked out at 0.5.
Consider `Cc1c[nH]nc1NC(=O)[C@H](C)NC(=O)CC1CCCCC1`, for which the “% Inhibition” value is given as -4% and the Z score turned out to be 0.62.
As for `CC(=O)N1C[C@@H]2CCN(C(=O)c3ccc(Cl)cc3)C[C@]2(CO)C1`, the “% Inhibition” value was determined as 2% and the Z score is -0.27.
Take `Cc1cccn(CC(=O)N(C2CC2)[C@@H](C)c2ccc(Cl)cc2)c1=O`: the “% Inhibition” value is on record as -4% and the Z score is given as 0.59.
The matching figures for `CN1CCC(CNC(=O)C2(O)CCc3cc(Br)ccc3C2)CC1=O` (stereo not given): -1% and 0.2.
Regarding `Cc1c(CN(C)CC(=O)Nc2cccc(Cl)c2Cl)cnn1C`, the “% Inhibition” value was -3% and the Z score turned out to be 0.33.
For `COc1ccc(C(=O)N2CCC[C@H](C(=O)Nc3ccccc3O)C2)c2ccccc12`, the “% Inhibition” value was 11% and the Z score is reported as -1.27.
Turning to `CC(C)[C@H](C)N(CC(F)(F)F)C(=O)c1cc2c(cn1)OCCC2`, the “% Inhibition” value amounted to 0% and the Z score was -0.02.
The matching figures for `CCN(CC)CCN(C)C(=O)c1cnn(-c2nccc(-c3ccc4c(c3)OCO4)n2)c1-c1ccco1`: 16% and -1.97.
Take `CN1CCN(C(=O)c2ccc(-c3ccccc3F)o2)CC1`: the “% Inhibition” value was -15% and the Z score was 2.07.
`C[C@H](NC(=O)CNC(=O)OCc1ccccc1)c1cccs1`: the “% Inhibition” value is reported as 10% and the Z score is listed as -1.36.
For the compound `COc1cccc(-c2cc(C(F)(F)F)n3ncc(C(=O)N4CCc5ccccc5C4)c3n2)c1`, the “% Inhibition” value was -8% and the Z score is listed as 1.13.
As to `Cc1c(Nc2cnn(C)c2)nn2c(C(F)(F)F)nnc2c1C`, the “% Inhibition” value is recorded as -1% and the Z score is listed as 0.12.
For the compound `CC1=C(CCN2CCc3[nH]cnc3[C@@H]2c2cnn(C)c2)C(C)(C)CCC1`, the “% Inhibition” value amounted to 10% and the Z score was -1.83.
Turning to `O=C(CN1CCCC1)NCCc1ccccc1`, the “% Inhibition” value is given as -7% and the Z score came out at 1.29.
On the same counts, the results for `CCOCCCNCc1ccc(F)cc1Cl` are -15% and 2.51.
`COc1ccc([C@@H]2C[C@H](NC(C)=O)C[C@H](CC(C)C)O2)c(C)c1C`: the “% Inhibition” value is 6% and the Z score is listed as -1.28.
Take `O=C(NCCCc1ccccc1)N1CCN(C(c2ccccc2)c2ccccc2)CC1`: the “% Inhibition” value was -9% and the Z score was 1.41.
Consider `C[C@@H](CCn1cccn1)Nc1cccc(CO)c1`, for which the “% Inhibition” value is on record as -1% and the Z score worked out at 0.14.
On to `O=C(CCCn1cccn1)NCc1cc(C2CC2)[nH]n1`, for which the “% Inhibition” value is -17% and the Z score was 3.32.
For the compound `CCn1ncc(C(=O)N[C@@H](C)c2ccc(C)s2)c1C(F)(F)F`, the “% Inhibition” value is reported as -9% and the Z score stood at 1.17.
The matching figures for `CCS(=O)(=O)N1CCCN(C(=O)C2CCCC2)CC1`: -13% and 2.17.
Take `N#Cc1c(-c2cccnc2)cc(-c2cccc(O)c2)nc1N`: the “% Inhibition” value is listed as 0% and the Z score came to 0.06.
For the compound `CC(C)(CO)C(C)(C)NCc1ccc(Cl)cc1`, the “% Inhibition” value is given as -6% and the Z score was found to be 0.66.
As to `O=S(=O)(c1cccc2ccncc12)N1CCCC1C1CCCO1` (stereo not given), the “% Inhibition” value is listed as -15% and the Z score is 1.84.
`COc1ccc(C(=O)Nc2cccnc2-n2cccn2)cc1OC`: the “% Inhibition” value is 7% and the Z score is -1.36.
Take `c1ccc2c(c1)CC(n1cc(-c3ncc[nH]3)nn1)C2`: the “% Inhibition” value is on record as 6% and the Z score is given as -1.05.
`COc1ccc(N2CCN(C(=O)CN3C(=O)COc4cc(C(C)(C)C)ccc43)CC2)cc1`: the “% Inhibition” value stood at 31% and the Z score is listed as -3.51.
On to `CCCCNC(=O)C1CCN(CC(O)CN2CCC(C(=O)NCCCC)CC2)CC1`, for which the “% Inhibition” value was 4% and the Z score is -0.74.
For the compound `Cc1ccc([C@H]2CN(C(=O)c3cc4ncccn4n3)C[C@@H]2N(C)C)cc1`, the “% Inhibition” value is 0% and the Z score is -0.04.
On the same counts, the results for `CC(NCCC1CCCO1)c1ccccc1Cl` (stereo not given) are -4% and 0.64.
Take `Cc1nc(CCCNC(=O)c2ccc(-c3cncc(O)n3)cc2)sc1C`: the “% Inhibition” value stood at 9% and the Z score is reported as -1.52.
For `CC1OCCC1S(=O)(=O)N1CCc2cccc(F)c2C1C` (stereo not given), the “% Inhibition” value was -5% and the Z score came out at 0.68.
On the same counts, the results for `O=C(Nc1ccn(C2CCOCC2)n1)Nc1ncccc1N1CCOCC1` are -14% and 1.55.
The matching figures for `CC(C)c1ccc(N2CC[C@H](C(C)(C)O)C2)nn1`: -3% and 0.46.
Take `CCN(CC)S(=O)(=O)c1cc(-c2ccc(=O)[nH]n2)cc(C)c1C`: the “% Inhibition” value is recorded as -19% and the Z score is 2.54.
In the case of `CNc1nc(C(=O)NCCc2nc(C(C)C)cs2)cs1`, the “% Inhibition” value was -19% and the Z score stood at 1.69.
Regarding `C[C@](O)(CNC(=O)c1sccc1-n1ccnn1)C(F)(F)F`, the “% Inhibition” value is 5% and the Z score is recorded as -1.05.
For the compound `Cc1ccc(S(=O)(=O)N[C@@H](C(C)C)C2(CO)CCC2)cn1`, the “% Inhibition” value is recorded as -13% and the Z score came out at 1.75.
With `O=C(Cc1cccs1)NCC1(O)CCCC1`, the “% Inhibition” value is -14% and the Z score was 2.36.
The matching figures for `O=C(COCC(=O)Nc1ccccn1)Nc1ccccc1`: -2% and 0.24.
On to `COc1ccc(F)c(C(=O)N2CCC3(CC2)[C@H](O)C[C@@H]3OC)c1F`, for which the “% Inhibition” value is listed as 5% and the Z score was -0.98.
